According to article PMC4336329 (PLoS ONE, 2015):
Among all 310,000 compounds or so, about 2,200 (0.71%) showed an effect of 50% or more. The effect is printed as a negative number. This is one part of the list.

Target: human ether-à-go-go-related gene (hERG) potassium channel (human, UniProt Q12809)
Test: primary screen, population patch clamp on CHO cells stably expressing hERG

Chain of human ether-à-go-go-related gene (hERG) potassium channel (Q12809 whole entry, looked up): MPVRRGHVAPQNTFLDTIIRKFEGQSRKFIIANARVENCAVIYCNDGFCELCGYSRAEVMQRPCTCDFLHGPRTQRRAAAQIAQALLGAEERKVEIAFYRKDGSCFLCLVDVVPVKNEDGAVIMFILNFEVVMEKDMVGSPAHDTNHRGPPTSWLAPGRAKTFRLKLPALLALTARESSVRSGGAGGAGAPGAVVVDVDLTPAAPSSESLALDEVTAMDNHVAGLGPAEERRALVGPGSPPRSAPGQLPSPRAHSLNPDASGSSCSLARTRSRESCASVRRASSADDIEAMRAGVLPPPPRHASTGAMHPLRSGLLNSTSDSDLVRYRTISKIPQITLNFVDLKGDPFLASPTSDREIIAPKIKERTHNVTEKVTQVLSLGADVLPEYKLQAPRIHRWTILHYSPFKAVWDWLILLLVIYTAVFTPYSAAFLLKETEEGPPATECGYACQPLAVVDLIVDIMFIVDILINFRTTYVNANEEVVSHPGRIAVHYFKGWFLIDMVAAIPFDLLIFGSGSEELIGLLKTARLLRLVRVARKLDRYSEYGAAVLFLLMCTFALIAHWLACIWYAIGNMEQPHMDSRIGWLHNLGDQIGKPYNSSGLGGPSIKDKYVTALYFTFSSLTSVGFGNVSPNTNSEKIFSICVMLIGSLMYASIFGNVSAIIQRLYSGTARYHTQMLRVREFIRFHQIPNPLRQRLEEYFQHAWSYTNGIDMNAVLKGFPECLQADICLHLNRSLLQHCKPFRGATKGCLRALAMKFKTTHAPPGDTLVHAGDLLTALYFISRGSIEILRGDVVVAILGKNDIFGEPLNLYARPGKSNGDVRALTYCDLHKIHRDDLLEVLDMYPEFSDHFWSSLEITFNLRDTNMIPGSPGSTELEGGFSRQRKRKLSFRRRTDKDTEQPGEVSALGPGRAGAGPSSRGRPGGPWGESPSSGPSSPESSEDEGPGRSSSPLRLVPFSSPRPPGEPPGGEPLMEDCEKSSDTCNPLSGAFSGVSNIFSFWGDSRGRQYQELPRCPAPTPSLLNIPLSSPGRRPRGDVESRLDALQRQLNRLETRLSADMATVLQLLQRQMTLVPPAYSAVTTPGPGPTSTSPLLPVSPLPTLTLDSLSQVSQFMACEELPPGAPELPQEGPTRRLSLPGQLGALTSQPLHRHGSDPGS

Row | SMILES | hERG current change (%, negative = inhibition) at 1uM [%]
1 | CCCC1=Nc2cc(C(=O)NCCN3CCOCC3)ccc2Sc2ccc(C)cc21 | 11.9
2 | COc1cccc(C(=O)SC2=NCCS2)c1 | 6.91
3 | COc1ccccc1NC(=O)C1=C(C)NC(=O)NC1c1cccc(OC)c1OC (centres unmarked) | 8.49
4 | C[C@@H](NC(=O)c1nc[nH]c1C(=O)NCc1ccc(CNC(=O)OC(C)(C)C)cc1)c1ccccc1 | 7.66
5 | Oc1nc(Nc2ccccc2)sc1/C=C1\C=Nc2ccccc21 | 7.84
6 | COC(=O)C1CCN(c2cnccn2)CC1 | 10.1
7 | CC1CCC(NC(=O)CNC(=O)Cc2cccc3ccccc23)CC1 (centres unmarked) | 10.3
8 | CN(C)c1ccc(NC(=O)CN2CCC(N3CCCCC3)CC2)cc1.O=C(O)C(=O)O | 12
9 | Clc1ccc(NCn2cncn2)nc1 | 5.87
10 | Cc1cccc(OCc2cc(-c3ccccc3)no2)c1C | 15.3
11 | COc1ccc(OC)c(S(=O)(=O)N(C(C)=O)c2ccc3oc(=O)sc3c2)c1 | -3.96
12 | CC1Cn2c(nc3sc4c(c3c2=O)CC(C)(C)OC4)N1CCO (centres unmarked) | 12.2
13 | Cc1c(Cl)cccc1NS(=O)(=O)c1c(C(=O)N2CCOCC2)c(C)n(C)c1C | -1.38
14 | Cn1c(SCC(=O)Nc2ccc(F)cc2)nc2c([nH]c3ccccc32)c1=O | 5.63
15 | Cc1ccc(-c2nnc(N3CCN(C(=O)c4cccs4)CC3)c3ccccc23)cc1 | 1.85
16 | COc1nnc(-c2ccc(N3CCOCC3)c(NC(=O)c3ccccc3)c2)c2ccccc12 | -2.92
17 | CCOc1ccc(S(=O)(=O)NCCC(=O)Nc2nnc(C)s2)cc1 | 12.9
18 | CCOc1ccccc1NC(=S)N1CCN(c2cccc(OC)c2)CC1 | 8.71
19 | Cc1nc(NCC2CC2)c2nnn(Cc3ccccc3)c2n1 | 11.5
20 | C[N+]1(CC(=O)OCCCc2ccccc2)CCCC1.[I-] | 11.3
21 | CC1CCN(S(=O)(=O)c2ccc(C(=O)Nc3nnc(C4CC4)o3)cc2)CC1 | 11.4
22 | Cc1c(NC(=O)COc2cccc(F)c2)c(=O)n(-c2ccccc2)n1C | 12.3
23 | O=C(Nc1cccnc1Cl)C1=NN(c2ccccc2)C(=O)CC1 | 11.1

Row | SMILES | hERG current change (%, negative = inhibition) at 1uM [%]
24 | COC(=O)c1cc(S(=O)(=O)N2CCC(C(N)=O)CC2)oc1C | 12.2
25 | NNC(=O)Nc1cccc(C(F)(F)F)c1 | 13.9
26 | O=c1cc(CCl)[nH]c2nc3ccccc3n12 | 8.93
27 | Cc1cc(CNC(=O)COc2ccc(C)c(C)c2)c2ccccc2n1 | 6.1
28 | COc1ccc(N2CC(C)Cn3c2nc2c3c(=O)n(Cc3ccccc3F)c(=O)n2C)c(OC)c1 (centres unmarked) | -3.43
29 | COc1cc(NC(=O)c2ccco2)c(C(=O)O)cc1OC | -5.47
30 | O=C(CSc1nnc(-c2ccc(OC(F)F)cc2)o1)NCc1cccs1 | -2.17
31 | CCOc1ccccc1C(=O)Nc1nncs1 | 10.5
32 | COc1ccccc1NS(=O)(=O)c1ccc(C(=O)NCCCn2ccnc2)cc1 | 13.1
33 | COc1cccc(-c2nn(-c3ccc(C)cc3)cc2C(=O)NCC2CCCO2)c1 (centres unmarked) | -0.814
34 | CC(C)NC(=S)N/N=C/c1cccs1 | 6.26
35 | O=C(Nc1ccc[n+](CC(=O)c2cccc3ccccc23)c1)c1ccccc1.[Br-] | -7.08
36 | O=C(OCCN1C(=O)CCC1=O)c1ccc(S(=O)(=O)N2CCCCC2)cc1 | 8.46
37 | CCOc1ccccc1NC(=O)CN1CCc2ccccc2C1 | 5.32
38 | COc1ccc(-n2nc(C(=O)NCC(=O)N3CCN(c4ccccc4)CC3)c3ccccc3c2=O)c(OC)c1 | 14.8
39 | CC(=O)Nc1ccc(Sc2ncccc2C(=O)Nc2cc(Cl)cc(Cl)c2)cn1 | 15.9
40 | CN1CCN(c2nc(NCCOC34CC5CC(CC(C5)C3)C4)nc(OCC(F)(F)F)n2)CC1 | 4.54
41 | CC1(c2ccccc2)NC(=O)N(CC(=O)Nc2ccc([N+](=O)[O-])cc2)C1=O (centres unmarked) | -12.7
42 | COc1ccsc1C(=O)N1CCN(Cc2ccc3c(c2)OCO3)CC1 | 0.457
43 | N#Cc1sc(=O)[nH]c1Cl | 12.4
44 | COc1cccc(N2CN(C3CCCCC3)CNC2=S)c1 | 12.9
45 | CCOc1ccccc1Nc1ccnc2cc(Cl)ccc12 | -2.44
46 | CC(=O)NC12CC3CC(C1)CC(C(=O)Nc1nc4ccc(F)cc4s1)(C3)C2 | -12.6

Row | SMILES | hERG current change (%, negative = inhibition) at 1uM [%]
47 | Cc1cc(C)n2nc(C(=O)Oc3ccc4c(c3)OCO4)nc2n1 | 24.6
48 | CC(C)COC(=O)/C(C#N)=C/c1c[nH]c2ccccc12 | 6.85
49 | COc1ccccc1/C=C/C=N/NC(=O)c1ccc(=O)n(C)c1 | 5.36
50 | O=C(c1cn(-c2ccccc2)nc1-c1ccc(F)cc1)N1CCOCC1 | -2.32
51 | Cc1cc(C)c(C)c(S(=O)(=O)NCC(=O)Nc2ccc(F)cc2)c1C | 7.54
52 | COc1ccccc1CNC(=O)COC(=O)c1ccc(N2CCCC2=O)cc1 | 15.7
53 | C/C(NCCN1CCOCC1)=C(\C#N)C(N)=O | -3.71
54 | CC(=O)N1CCc2cc(S(=O)(=O)CCC(=O)NCc3ccc(F)cc3)ccc21 | 13.7
55 | COc1ccc(-c2cnc(N)n2C)cc1 | -7
56 | COc1ccc(S(=O)(=O)NCC(c2ccc3c(c2)OCO3)N2CCN(C)CC2)cc1OC (centres unmarked) | 2.62
57 | O=C(CC1Sc2ccccc2NC1=O)NNC(=O)Nc1ccc(Cl)cc1 (centres unmarked) | 9.26
58 | COC(=O)Cn1cnc2scc(-c3ccc(C)cc3)c2c1=O | 10.5
59 | CCc1ccc(S(=O)(=O)Nc2nccs2)cc1 | 11.8
60 | O=C(CN1CCCSc2ccccc21)N1CCN(S(=O)(=O)c2cccc(F)c2)CC1 | 2.18
61 | Cc1ccc(CS(=O)(=O)c2nsc(C)c2C#N)cc1 | 11.5
62 | CC(=O)C1=C(O)C(=O)N(c2ccc(Br)cc2)C1c1ccc(Br)cc1 (centres unmarked) | 10.2
63 | CCC(C)NC(=O)C1=C(C)C(=O)OC12CCC(C)CC2 (centres unmarked) | 15.1
64 | COc1ccccc1CCNC(=O)C1CCCO1 (centres unmarked) | 6.2
65 | O=C(COc1ccccc1/C=C\c1[nH]c(=O)[nH]c(=O)c1[N+](=O)[O-])Nc1ccccc1 | 10.9
66 | Cc1sc2nc(CSC(C)C(=O)Nc3ccccn3)[nH]c(=O)c2c1C (centres unmarked) | 0.571
67 | Cc1nc(NC(=O)CSc2nncs2)c(Cl)cc1Cl | 10.5
68 | O=C(N/N=C/c1coc2ccccc2c1=O)c1ccccc1Br | 5.95
69 | CCOC(=O)Cn1c(=O)oc2cc(S(=O)(=O)Nc3ccc(N(CC)CC)cc3C)ccc21 | 6.25

Row | SMILES | hERG current change (%, negative = inhibition) at 1uM [%]
70 | COc1ccc(-c2nnc(SCC(=O)c3cccs3)o2)c(OC)c1 | 9.66
71 | CC(C)(C)c1cc(C(=O)NNC(=O)c2ccc(C(F)(F)F)cc2)no1 | 9.67
72 | Cn1nc(Cc2cccc3ccccc23)c(C#N)c1N | 12.1
73 | CCOc1ccc(-n2c(SCc3nc(-c4cccs4)no3)nnc2-c2ccncc2)cc1 | -4.26
74 | CCCCn1c(N)c(N(CCOC)C(=O)c2cc(S(=O)(=O)N3CCCCC3)ccc2C)c(=O)[nH]c1=O | 15.4
75 | CN(Cc1cnn(C)c1)C(=O)c1ccc(OC2CCN(CCc3ccccc3)CC2)cc1 | -8.79
76 | CC(Sc1nc(C2CC2)n(-c2ccccc2)n1)C(=O)c1c(N)n(C)c(=O)n(C)c1=O (centres unmarked) | -3.62
77 | CN(CC(=O)Nc1cccc(F)c1)C(=O)c1cn2ccccc2n1 | 4.27
78 | Cc1ccc(S(=O)(=O)N2CCOCC2)cc1NC(=O)c1cc([N+](=O)[O-])ccc1N1CCOCC1 | 3.27
79 | O=C(COC(=O)/C=C/c1nc2ccccc2s1)Nc1ccccc1Oc1ccccc1 | 2.48
80 | Cc1cccc(C(=O)NNC(=O)c2ccccc2O)c1 | 7.05
81 | Cc1cccc(-c2nnc(SCc3ccc(C#N)cc3)n2Cc2ccco2)c1 | -44
82 | CCOc1ccc(NC(=O)CCC(=O)c2ccc(OC)cc2)cc1 | 16.1
83 | CN(C1=C(NC(=O)c2ccccc2)C(=O)c2ccccc2C1=O)C1CCS(=O)(=O)C1 (centres unmarked) | -8.59
84 | c1ccc(-c2oc3ncnc(NCCN4CCOCC4)c3c2-c2ccccc2)cc1 | 9.8
85 | CC1CCCN(CCCNC(=O)CCn2nc(-c3ccccc3)ccc2=O)C1 (centres unmarked) | -7.17
86 | COc1ccc(NC(=O)OCC(C)C)cc1OC | 10.7
87 | Cc1ccc(S(=O)(=O)NC(C(=O)Oc2cc3oc(=O)cc(C)c3cc2Cl)C(C)C)cc1 (centres unmarked) | -9.51
88 | Cc1cccc(N(CC(=O)NC2CCCCC2)C(=O)CCC(=O)Nc2ccccn2)c1 | 9.76
89 | OCCN1CCOCCOCCN(CCO)CCN(CCO)CC1 | 16.7
